From a collection of fitness landscapes (doi:10.1016/j.celrep.2020.107928)
The full ranking holds about 81,000 sequences; the median of “one-hybrid fitness for binding parS DNA” is about -0.17, and the highest 2% start at about 0.51. This is one part of the list.

B1: Caulobacter ParB omega fusion; a variant is named by its letters at X, in order, B8GW30 (parent)
chain: MESVVVGEPGMSEGRRGLGRGLSALLGEVDAAPAQAPGEQLGGSREAPIEILQRNPDQPRRTFREEDLEDLSNSIREKGVLQPILVRPSPDTAGEYQIVAGERAWRAAQRAGLKTVPIMVRELDDLAVLEIGIIENVQRADLNVLEEALSYKVLMEKFERTQENIAQTIGKSXSHVANXMRLLXLPDEVQSYLVSGELTAXHARAIAAAADPVALAKQIIEGGLSVRETEALARKAPNLSAGKSKGGRPPRVKDTDTQALESDLSSVLGLDVSIDHRGSTGTLTITYATLEQLDDLCNRLTRGI

Variants of: B1
Assay: one-hybrid fitness for binding parS DNA (scaled: cognate 1, non-cognate 0); higher = stronger binding
Details: with parS DNA site
In short: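 In E. coli USO, a HIS3 reporter with its site placed 19 bp from the promoter was used to select Caulobacter ParB variants randomised at four specificity codons. Growth lasted 48 hours at 37°C on histidine-free M9 containing 0.1 mM IPTG and 5 mM 3-AT. Fitness was taken as the log change in variant-to-wild-type read ratio from Illumina sequencing of pre- and post-selection plasmids, rescaled between the non-cognate and cognate sites.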

Row | Variant | one-hybrid fitness for binding parS DNA
1 | AIHV | ≤ 0.2
2 | ILQN | ≤ 0.2
3 | RNYS | 0.85
4 | NPLM | ≤ 0.2
5 | SYGT | ≤ 0.2
6 | GSGS | ≤ 0.2
7 | IQKR | ≤ 0.2
8 | NRFA | ≤ 0.2
9 | DGSA | ≤ 0.2
10 | EFKC | ≤ 0.2
11 | QITC | ≤ 0.2
12 | WSFR | ≤ 0.2
13 | PIGY | ≤ 0.2
14 | QMDF | ≤ 0.2
15 | HQPV | ≤ 0.2
16 | HTRY | ≤ 0.2
17 | YALG | ≤ 0.2
18 | MFIR | ≤ 0.2
19 | ADHL | ≤ 0.2
20 | QSPP | ≤ 0.2
21 | NIGS | ≤ 0.2
22 | TVVY | ≤ 0.2
23 | PNER | ≤ 0.2
24 | YCLR | ≤ 0.2
25 | THVC | ≤ 0.2
26 | AYWI | ≤ 0.2

Row | Variant | one-hybrid fitness for binding parS DNA
27 | SNHR | ≤ 0.2
28 | GQSG | ≤ 0.2
29 | RVHH | 0.235
30 | PMSN | ≤ 0.2
31 | RTRK | ≤ 0.2
32 | APIG | ≤ 0.2
33 | NVTG | ≤ 0.2
34 | TCKQ | ≤ 0.2
35 | CNAC | ≤ 0.2
36 | LMRV | ≤ 0.2
37 | HIRC | ≤ 0.2
38 | HKCS | ≤ 0.2
39 | QAVS | ≤ 0.2
40 | GMSA | ≤ 0.2
41 | VQVT | ≤ 0.2
42 | NSNI | ≤ 0.2
43 | MSSF | ≤ 0.2
44 | DHSK | 0.227
45 | TKQQ | ≤ 0.2
46 | SFAL | ≤ 0.2
47 | GSIP | ≤ 0.2
48 | WETR | ≤ 0.2
49 | ETSY | ≤ 0.2
50 | LRPG | ≤ 0.2
51 | VGHR | ≤ 0.2
52 | LDQC | ≤ 0.2

Row | Variant | one-hybrid fitness for binding parS DNA
53 | GQHA | ≤ 0.2
54 | ATHV | ≤ 0.2
55 | RFKE | ≤ 0.2
56 | DSRY | ≤ 0.2
57 | RIKR | ≤ 0.2
58 | NQTL | ≤ 0.2
59 | SSSH | ≤ 0.2
60 | SGHC | ≤ 0.2
61 | NLPV | ≤ 0.2
62 | AVIS | ≤ 0.2
63 | APLE | ≤ 0.2
64 | CPNC | ≤ 0.2
65 | RFYD | ≤ 0.2
66 | SADS | ≤ 0.2
67 | YAEM | ≤ 0.2
68 | GSCL | ≤ 0.2
69 | ACPT | ≤ 0.2
70 | YTYG | ≤ 0.2
71 | KSRD | ≤ 0.2
72 | RYMI | ≤ 0.2
73 | PDHT | ≤ 0.2
74 | VIQS | ≤ 0.2
75 | VDAG | ≤ 0.2
76 | QCEI | ≤ 0.2
77 | WNLS | ≤ 0.2
78 | QRNY | ≤ 0.2

Row | Variant | one-hybrid fitness for binding parS DNA
79 | SKQG | ≤ 0.2
80 | NTNR | ≤ 0.2
81 | IMTY | ≤ 0.2
82 | LITA | ≤ 0.2
83 | LNMR | ≤ 0.2
84 | TVPQ | ≤ 0.2
85 | GDRF | ≤ 0.2
86 | IAWT | ≤ 0.2
87 | WKGG | ≤ 0.2
88 | VYVG | ≤ 0.2
89 | QDDT | ≤ 0.2
90 | PPCQ | ≤ 0.2
91 | PIRY | ≤ 0.2
92 | KSKG | ≤ 0.2
93 | WRNS | ≤ 0.2
94 | TMCL | ≤ 0.2
95 | KWQG | ≤ 0.2
96 | QMNI | ≤ 0.2
97 | RMLL | ≤ 0.2
98 | RKVK | ≤ 0.2
99 | VWYS | ≤ 0.2
100 | SRCC | ≤ 0.2
101 | RKMM | 0.283
102 | VNLS | ≤ 0.2
103 | QVIK | ≤ 0.2
104 | FLRG | ≤ 0.2

Row | Variant | one-hybrid fitness for binding parS DNA
105 | QGAF | ≤ 0.2
106 | LGSE | ≤ 0.2
107 | KKHC | ≤ 0.2
108 | LKCG | ≤ 0.2
109 | QRND | ≤ 0.2
110 | MHMV | ≤ 0.2
111 | WILC | ≤ 0.2
112 | QIDS | ≤ 0.2
113 | TRNE | ≤ 0.2
114 | RQGY | 0.462
115 | PLML | ≤ 0.2
116 | SMPV | ≤ 0.2
117 | FHAY | ≤ 0.2
118 | RFML | ≤ 0.2
119 | EQYR | ≤ 0.2
120 | GRCC | ≤ 0.2
121 | RIGE | ≤ 0.2
122 | YMTS | ≤ 0.2
123 | HCCE | ≤ 0.2
124 | WPSW | ≤ 0.2
125 | WYHF | ≤ 0.2
126 | TELR | ≤ 0.2
127 | ALSV | ≤ 0.2
128 | EQAY | ≤ 0.2
129 | NSKM | ≤ 0.2
130 | AKFM | ≤ 0.2

Row | Variant | one-hybrid fitness for binding parS DNA
131 | TLKS | ≤ 0.2
132 | ASVS | ≤ 0.2
133 | KEKT | ≤ 0.2
134 | GHKS | ≤ 0.2
135 | PYLN | ≤ 0.2
136 | GQWS | ≤ 0.2
137 | GQAK | ≤ 0.2
138 | GALD | ≤ 0.2
139 | GPPT | ≤ 0.2
140 | ITSM | ≤ 0.2
141 | VPNI | ≤ 0.2
142 | MLLR | ≤ 0.2
143 | VCCC | ≤ 0.2
144 | DMGP | ≤ 0.2
145 | NPTL | ≤ 0.2
146 | TNPW | ≤ 0.2
147 | PCYN | ≤ 0.2
148 | RGTI | ≤ 0.2
149 | KDPC | ≤ 0.2
150 | TVAY | ≤ 0.2
151 | WAQS | ≤ 0.2
152 | YEPL | ≤ 0.2
153 | HHII | ≤ 0.2
